# Test results from PubChem BioAssay (Tox21).
# Values joined by “and” are separate entries in the source; they are usually repeats but may differ in a detail not shown here. Equal values may be shown once. The shares of active, inactive and inconclusive entries below differ from those in the screen. For some assays here: Potencies beside an inconclusive call are fits to weak or partial responses and may not hold up. Active and inactive are the calls of the source. Unless noted, the call rests on the fitted dose curve; in most records, active means well fitted curve in the direction sought with a large enough effect in the repeat runs; inconclusive means weak or mixed curves; inactive means no such curve, though single readings can be large; an effect the other way counts as inactive or inconclusive.
# How the values were obtained:
# [1] = qHTS assay to identify small molecule antagonists of the retinoid-related orphan receptor gamma (ROR-gamma) signaling pathway - cell viability counter screen (AID 1159520); conditions: Tet-on RORgamma CHO cells viability, ATP luminescence, 16 h; series mostly up to 92.4 µM; further: nearly all actives have a fitted effect of over 50% in size; further: potency means the concentration at half of the fitted maximal effect
# Summary of the method: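 Tet-on ROR gamma CHO cells were given compounds for 2 hr, then doxycycline hyclate at 1 uM final, and incubated 16 hr at 37 C. Viability was measured as ATP content by CellTiter-Glo luminescence.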
# [2] = qHTS assay to identify small molecule agonists of the AP-1 signaling pathway (AID 1159526; calls by dose curve; further: potency means the concentration at half of the fitted maximal effect; on activation: on the % scale 0 is the no-effect control and ±100 the full control effect); conditions: ME-180 (cervical carcinoma) AP-1-bla reporter, beta-lactamase FRET ratio, 5 h; activation: at 76.8 µM (top of the series) unless noted
# [3] = qHTS assay to identify small molecule agonists of the RXR signaling pathway - cell viability counter screen (AID 1159529); conditions: RXR-alpha-bla HEK293T viability, CellTiter-Glo, 16 h; series mostly up to 76.8 µM; further: potency means the concentration at half of the fitted maximal effect; nearly all actives have a fitted effect of over 50% in size
# Summary of the method: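 Cell viability is measured by CellTiter-Glo luminescence, 30 min at room temperature, in wells already read for beta-lactamase. Engineered HEK 293T cells (RXR-alpha-UAS-bla) are dosed 16 hr at 37 C. Tetraoctyl ammonium bromide serves as positive control.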
# [4] = qHTS assay to identify small molecule antagonists of the retinoid acid receptor (RAR) signaling pathway - cell viability counter screen (AID 1159551); conditions: C3RL4 cells viability, ATP luminescence (CellTiter-Glo), 6 h; series mostly up to 92.4 µM; further: potency means the concentration at half of the fitted maximal effect; nearly all actives have a fitted effect of over 35% in size
# Summary of the method: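 Measured by luminescent ATP detection, viability reflects C3RL4 cells treated 6 h at 37 C with test chemicals in the presence of 1 uM (final) retinol.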
# [5] = qHTS assay to identify small molecule agonists of the vitamin D receptor (VDR) signaling pathway - cell viability counter screen (AID 743224); conditions: VDR-bla HEK293T viability, CellTiter-Glo luminescence, 16 h; activity change, negative = cytotoxicity: at 62.6 µM (top of the series); further: potency means the concentration at half of the fitted maximal effect; nearly all actives have a fitted effect of over 50% in size
# Summary of the method: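 Counter screen for cytotoxicity: VDR-bla cells at 2,000 cells/well, 16 h compound exposure, then CellTiter-Glo luminescence after the beta-lactamase measurement.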
# [6] = biological target: Peroxisome proliferator-activated receptor delta (Homo sapiens) (UniProt Q03181); experiment: qHTS assay to identify small molecule antagonists of the peroxisome proliferator-activated receptor delta (PPARd) signaling pathway (AID 743215; active means well fitted inhibition curve with a large enough effect in the signal ratio in the repeat runs, not every such curve was filed as active; inconclusive means weak or mixed curves, or effect the other way; inactive means no such curve, though single readings can be large or run the other way; the % refers to the signal ratio;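 further: cells stimulated with agonist L165041 at 300 nM final during compound exposure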; further: potency means the concentration at half of the fitted maximal effect; on ratio activity, negative = inhibition: on the % scale 0 is the no-effect control and ±100 the full control effect); conditions: HEK293H PPARd-UAS-bla, beta-lactamase FRET ratio, antagonist, 17 h; ratio activity, negative = inhibition: at 62 µM (top of the series) unless noted
# UniProt Q03181, sequence (Q03181 whole entry, looked up): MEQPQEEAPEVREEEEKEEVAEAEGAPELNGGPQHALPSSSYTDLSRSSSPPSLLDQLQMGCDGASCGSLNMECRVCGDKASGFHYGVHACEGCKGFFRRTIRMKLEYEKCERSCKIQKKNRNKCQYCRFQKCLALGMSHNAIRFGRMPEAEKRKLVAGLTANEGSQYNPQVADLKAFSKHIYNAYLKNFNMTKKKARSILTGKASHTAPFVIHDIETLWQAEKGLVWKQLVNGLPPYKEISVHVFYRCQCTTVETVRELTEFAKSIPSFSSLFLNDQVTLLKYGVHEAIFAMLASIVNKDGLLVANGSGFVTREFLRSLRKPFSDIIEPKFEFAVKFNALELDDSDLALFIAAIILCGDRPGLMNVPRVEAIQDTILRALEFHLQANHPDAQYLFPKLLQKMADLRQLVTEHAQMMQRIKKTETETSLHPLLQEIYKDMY
# Summary of the method: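 Screen format: qHTS, antagonist mode. HEK293H PPARd-bla cells received compound and 300 nM L165041 (final), 17 h, 37 C. Beta-lactamase detected via FRET substrate fluorescence, 2 h, room temperature.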
# [7] = qHTS assay to identify small molecule antagonists of the vitamin D receptor (VDR) signaling pathway - cell viability counter screen (AID 743225); conditions: VDR-bla HEK293T viability, CellTiter-Glo luminescence, 16 h; viability change, negative = cytotoxic: at 61 µM (top of the series) unless noted; further: nearly all actives have a fitted effect of over 50% in size; further: potency means the concentration at half of the fitted maximal effect; on viability change, negative = cytotoxic: on the % scale 0 is the no-effect control and ±100 the full control effect
# Summary of the method: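 Cells (VDR-UAS-bla HEK 293T) are plated, rested 4 h at 37C, dosed with compound and 3 nM final 1-alpha,25-dihydroxy vitamin D3, and incubated 16 h. Viability is taken from CellTiter-Glo luminescence in the reporter wells.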
# [8] = biological target: Vitamin D3 receptor (Homo sapiens) (UniProt P11473); experiment: qHTS assay to identify small molecule antagonists of the vitamin D receptor (VDR) signaling pathway (AID 743223; active means well fitted inhibition curve with a large enough effect in the signal ratio in the repeat runs, not every such curve was filed as active; inconclusive means weak or mixed curves, or effect the other way; inactive means no such curve, though single readings can be large or run the other way; the % refers to the signal ratio; further: potency means the concentration at half of the fitted maximal effect); conditions: VDR-UAS-bla HEK293T, beta-lactamase FRET ratio, 16 h; for Potency: activity change, negative = inhibition: at 61 µM (top of the series) unless noted
# UniProt P11473, sequence (P11473 whole entry, looked up): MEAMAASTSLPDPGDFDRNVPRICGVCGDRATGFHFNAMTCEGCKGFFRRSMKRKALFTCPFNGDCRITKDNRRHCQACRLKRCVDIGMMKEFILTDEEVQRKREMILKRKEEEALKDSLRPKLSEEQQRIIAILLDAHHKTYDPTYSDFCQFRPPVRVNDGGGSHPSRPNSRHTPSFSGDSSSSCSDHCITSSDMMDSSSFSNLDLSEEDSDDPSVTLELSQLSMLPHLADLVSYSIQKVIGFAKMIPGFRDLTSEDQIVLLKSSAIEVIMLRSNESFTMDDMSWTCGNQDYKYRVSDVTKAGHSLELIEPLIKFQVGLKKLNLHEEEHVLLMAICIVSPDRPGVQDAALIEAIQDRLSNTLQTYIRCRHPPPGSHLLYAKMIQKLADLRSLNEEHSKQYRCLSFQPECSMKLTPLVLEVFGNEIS
# Summary of the method: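 Fluorescence from LiveBLAzer B/G FRET substrate, read after 2 h at room temperature, reflects beta-lactamase reporter activity in VDR-bla cells treated 16 h at 37C with compounds and agonist 1alpha,25-dihydroxyvitamin D3 (3 nM final).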
# [9] = biological target: Retinoic acid receptor RXR-alpha (Homo sapiens) (UniProt P19793); experiment: qHTS assay to identify small molecule agonists of the RXR signaling pathway (AID 1159527; calls by dose curve; further: nearly all actives have a fitted effect of over 35% in size; further: potency means the concentration at half of the fitted maximal effect); conditions: HEK293T RXRa-UAS-bla, beta-lactamase ratio, 16 h; activation: at 76.8 µM (top of the series) unless noted
# UniProt P19793, sequence (P19793 whole entry, looked up): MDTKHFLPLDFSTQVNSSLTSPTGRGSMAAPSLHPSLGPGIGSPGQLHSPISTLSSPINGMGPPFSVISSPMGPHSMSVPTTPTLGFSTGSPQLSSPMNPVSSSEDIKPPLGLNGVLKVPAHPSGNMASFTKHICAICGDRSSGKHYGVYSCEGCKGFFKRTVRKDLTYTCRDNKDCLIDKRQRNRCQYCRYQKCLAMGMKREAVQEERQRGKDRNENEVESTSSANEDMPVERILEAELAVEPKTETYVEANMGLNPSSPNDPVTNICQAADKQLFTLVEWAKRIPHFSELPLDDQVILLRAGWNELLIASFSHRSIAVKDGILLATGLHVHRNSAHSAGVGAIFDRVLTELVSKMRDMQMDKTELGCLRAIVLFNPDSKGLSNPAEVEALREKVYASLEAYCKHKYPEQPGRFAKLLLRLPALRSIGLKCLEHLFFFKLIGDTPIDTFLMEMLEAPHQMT
# Summary of the method: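 qHTS of the Tox21 10K library in GeneBLAzer RXR-alpha HEK 293T cells carrying a beta-lactamase reporter […]; 16 hr treatment, 9-cis retinoic acid as agonist control, FRET read-out.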
# [10] = qHTS assay to identify small molecule antagonists of the peroxisome proliferator-activated receptor delta (PPARd) signaling pathway - cell viability counter screen (AID 743213); conditions: PPARd-bla HEK293H viability, CellTiter-Glo luminescence, 17 h; viability change, negative = cytotoxic: at 62 µM (top of the series) unless noted
# Summary of the method: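 HEK293H PPARd UAS-bla cells, 5 h pre-incubation, compound + L165041 300 nM final, 17 h 37 C; B/G FRET substrate 2 h RT; then CellTiter-Glo 30 min RT, luminescence.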
# [11] = biological target: Bile acid receptor (Homo sapiens) (UniProt Q96RI1); experiment: qHTS assay to identify small molecule antagonists of the farnesoid-X-receptor (FXR) signaling pathway (AID 743217; active means well fitted inhibition curve with a large enough effect in the signal ratio in the repeat runs, not every such curve was filed as active; inconclusive means weak or mixed curves, or effect the other way; inactive means no such curve, though single readings can be large or run the other way; the % refers to the signal ratio; further: potency means the concentration at half of the fitted maximal effect); conditions: HEK293T FXR-UAS-bla, beta-lactamase ratio, CDCA-stimulated, 16 h; activity change, negative = inhibition: at 62.6 µM (top of the series) unless noted
# UniProt Q96RI1, sequence (Q96RI1 whole entry, looked up): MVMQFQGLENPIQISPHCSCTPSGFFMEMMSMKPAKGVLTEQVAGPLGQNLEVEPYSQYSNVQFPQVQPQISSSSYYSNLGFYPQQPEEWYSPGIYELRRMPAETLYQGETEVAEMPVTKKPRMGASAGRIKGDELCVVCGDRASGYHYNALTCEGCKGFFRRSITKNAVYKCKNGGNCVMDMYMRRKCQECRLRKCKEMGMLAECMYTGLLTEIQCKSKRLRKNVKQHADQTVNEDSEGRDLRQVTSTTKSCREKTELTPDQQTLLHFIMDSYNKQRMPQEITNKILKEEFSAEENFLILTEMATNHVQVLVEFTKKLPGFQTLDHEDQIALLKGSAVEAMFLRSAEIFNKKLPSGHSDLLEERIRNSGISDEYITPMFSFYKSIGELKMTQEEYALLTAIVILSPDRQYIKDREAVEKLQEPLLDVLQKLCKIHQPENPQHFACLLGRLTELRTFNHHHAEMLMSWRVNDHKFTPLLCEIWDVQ
# Summary of the method: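 Quantitative HTS, beta-lactamase reporter format: FXR-UAS-bla HEK 293T cells co-treated 16 h at 37 °C with compounds and 50 uM final chenodeoxycholic acid, then read by B/G FRET fluorescence.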
# [12] = qHTS assay to identify small molecule antagonists of the farnesoid-X-receptor (FXR) signaling pathway - cell viability counter screen (AID 743221; active means well fitted cell-killing curve with a large enough effect in the repeat runs, not every such curve was filed as active; inconclusive means weak or mixed curves, or effect the other way; inactive means no such curve, though single readings can be large or run the other way); conditions: FXR-bla HEK293T viability, CellTiter-Glo luminescence, 16 h; activity change, negative = cytotoxicity: at 62.6 µM (top of the series)
# Summary of the method: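 Quantitative HTS of the Tox21 10K library run in parallel with the beta-lactamase reporter read. HEK 293T cells carrying a UAS-driven bla reporter got compound and 50 uM CDCA (final) for 16 h; ATP-based luminescence followed.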
# [13] = biological target: Vitamin D3 receptor (Homo sapiens) (UniProt P11473); experiment: qHTS assay to identify small molecule agonists of the vitamin D receptor (VDR) signaling pathway (AID 743222; calls by dose curve; further: on the % scale 0 is the no-effect control and ±100 the full control effect); conditions: HEK293T VDR-UAS-bla, beta-lactamase FRET ratio, 16 h; activation: at 63.5 µM (top of the series) unless noted
# Summary of the method: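 Using LiveBLAzer B/G FRET detection, agonism was scored in VDR-bla cells exposed overnight (16 h, 37C) to DMSO-dissolved compounds; substrate incubation was 2 h at room temperature.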
# [14] = qHTS assay to identify small molecule agonists of the farnesoid-X-receptor (FXR) signaling pathway - cell viability counter screen (AID 743218); conditions: FXR-bla HEK293T viability, CellTiter-Glo luminescence, 16 h; viability change, negative = cytotoxic: at 62.6 µM (top of the series) unless noted; further: nearly all actives have a fitted effect of over 45% in size; further: potency means the concentration at half of the fitted maximal effect
# Summary of the method: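 Same-well cytotoxicity check on FXR-UAS-bla HEK 293T cells: 5 h attachment, 16 h compound at 37 C, CellTiter-Glo luminescence read at room temperature after 30 min.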
# Tags describe the fitted curve by direction and shape or compound fluorescence and quenching.
structure (smiles),measurement,setting,value
Cc1cc(C)c(O)c(C(C)(C)C)c1,Potency,[1],"inconclusive: 61.1 µM [cytotoxic, partial curve, poor fit]"
same,Potency,[2],inconclusive: 49 µM
same,Potency,[3],inconclusive: 54.9 µM [cytotoxic]
same,Potency,[4],"inconclusive: 77 µM [cytotoxic, partial curve, poor fit]"
O=C(Nc1ccccc1)c1ccccc1O,Potency,[5],"inconclusive: 61.6 µM [cytotoxic, single point]"
same,Potency,[1],"inconclusive: 9.69 µM [cytotoxic, full curve]"
same,Potency,[2],inactive
same,Potency,[3],"inconclusive: 43.6 µM [cytotoxic, single point]"
same,Potency,[4],"inconclusive: 68.6 µM [cytotoxic, partial curve, poor fit]"
Cc1c(O)cccc1O,"ratio activity, negative = inhibition",[6],inconclusive: -10.5% [at 80.4 µM]
same,Potency,[7],inactive
same,Potency,[1],inactive
same,Potency,[2],inactive
CC1=CC[C@H]2C[C@@H]1C2(C)C,"activity change, negative = inhibition",[8]; at 61 µM (top of the series),inconclusive: -4.29%
same,"activity change, negative = inhibition",[8]; at 78.8 µM (top of the series),inconclusive: -10.5%
same,Potency,[9],inactive
O=C(CCCN1CCN(c2ccc(F)cc2)CC1)NC1c2ccccc2CSc2ccccc21 (stereo not given),Potency,[10],active: 8.41 µM
same,Potency,[6],"inconclusive: 47.3 µM [inhibitor, partial curve, poor fit]"
same,Potency,[11],"inconclusive: 26.6 µM [rising, partial curve]"
same,Potency,[12],active: 26.6 µM
same,activation,[13],inconclusive: 2.42%
same,Potency,[8],"inconclusive: 23.9 µM [inhibitor, partial curve]"
same,Potency,[7],active: 23.9 µM
same,Potency,[1],"inconclusive: 26.6 µM [cytotoxic, partial curve]"
same,activation,[9],inconclusive: -27% [at 35.3 µM]
same,Potency,[3],"inconclusive: 8.49 µM [cytotoxic, full curve, poor fit]"
CC(C)c1c(C(=O)Nc2ccccc2)c(-c2ccccc2)c(-c2ccc(F)cc2)n1CC[C@@H](O)C[C@@H](O)CC(=O)O,Potency,[10],"inconclusive: 2.11 µM [cytotoxic, partial curve, poor fit]"
same,Potency,[14],"inconclusive: 18.8 nM [cytotoxic, full curve, poor fit] and inconclusive: 2.04 µM [cytotoxic, full curve]"
same,activation,[13],inconclusive: -16.5%
same,Potency,[8],"inconclusive: 36.3 µM [activator, partial curve] and inconclusive: 848 nM [activator, full curve]"
same,Potency,[1],"inconclusive: 5.89 µM [cytotoxic, full curve] and inconclusive: 11.4 µM [cytotoxic, full curve] and inconclusive: 13.3 µM [cytotoxic, partial curve]"
same,Potency,[3],"inconclusive: 1.33 µM [cytotoxic, partial curve] and inconclusive: 3.24 µM [cytotoxic, partial curve]"
CC(=O)OC[C@H]1O[C@@H](n2ncc(=O)[nH]c2=O)[C@H](OC(C)=O)[C@@H]1OC(C)=O,"ratio activity, negative = inhibition",[6],inconclusive: -53.1%
same,Potency,[11],"inconclusive: 1.33 µM [rising, full curve]"
same,Potency,[12],"inconclusive: 0.944 µM [falling, partial curve]"
same,Potency,[8],"inconclusive: 0.0006 µM [falling, partial curve, poor fit]"
same,Potency,[7],inactive
same,Potency,[1],"inconclusive: 7.5 µM [cytotoxic, partial curve, poor fit]"
same,Potency,[2],inactive
same,Potency,[9],"inconclusive: 2.13 µM [rising, full curve]"
CC(C)n1c(/C=C/[C@@H](O)C[C@@H](O)CC(=O)O)c(-c2ccc(F)cc2)c2ccccc21,Potency,[10],"inconclusive: 49 µM [cytotoxic, partial curve] and inconclusive: 596 nM [cytotoxic, full curve, poor fit]"
same,Potency,[12],"inconclusive: 11 µM [falling, partial curve, poor fit]"
same,Potency,[7],"inconclusive: 1.07 µM [cytotoxic, full curve]"
same,Potency,[1],"inconclusive: 1.37 µM [cytotoxic, full curve] and inconclusive: 3.76 µM [cytotoxic, full curve]"
same,Potency,[9],"inconclusive: 30.9 µM [partial curve, poor fit]"
same,Potency,[3],inconclusive: 4.9 µM [cytotoxic] and inconclusive: 2.39 µM [cytotoxic]
NC(N)=NCCN1CCCCCCC1,"viability change, negative = cytotoxic",[14],inactive: 2.57% [at 0.55 µM]
same,"activity, negative = cytotoxicity",[1],inactive: 6.85% [at 0.349 µM]
same,activation,[2],inactive: -7.76% [at 0.29 µM]
same,activation,[9],inactive: 1.89% [at 0.29 µM]
